These are yes or no findings as the source states them, for the method shown. Some results given as binding are weak or reduced against the parent protein; the word gives no strength. Sequences can lack the tags named with a protein.
Biological target: T1, CBL-interacting protein kinase 9 (CIPK9), two-hybrid fusion (Arabidopsis thaliana) (UniProt Q9MAM1)
T1 sequence: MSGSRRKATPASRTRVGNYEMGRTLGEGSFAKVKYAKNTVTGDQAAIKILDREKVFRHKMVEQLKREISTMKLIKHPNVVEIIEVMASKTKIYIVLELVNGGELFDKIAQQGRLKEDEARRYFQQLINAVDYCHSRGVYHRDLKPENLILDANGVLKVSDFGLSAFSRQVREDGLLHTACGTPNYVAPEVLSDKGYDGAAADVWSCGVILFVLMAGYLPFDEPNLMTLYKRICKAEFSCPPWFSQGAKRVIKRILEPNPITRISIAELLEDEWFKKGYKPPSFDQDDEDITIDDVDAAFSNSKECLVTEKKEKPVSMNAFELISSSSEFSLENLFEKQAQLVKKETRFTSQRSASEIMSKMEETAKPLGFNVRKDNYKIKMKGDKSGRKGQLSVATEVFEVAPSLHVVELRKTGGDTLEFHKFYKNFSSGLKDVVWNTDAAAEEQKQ
Experiment: two-hybrid; yeast two-hybrid library screening for interactors of CIPK9

B1: AP2C1 (protein phosphatase 2C), two-hybrid fusion (enzyme, UniProt O80871 1-396)
chain: MSCSVAVCNSPVFSPSSSLFCNKSSILSSPQESLSLTLSHRKPQTSSPSSPSTTVSSPKSPFRLRFQKPPSGFAPGPLSFGSESVSASSPPGGVLKRKRPTRLDIPIGVAGFVAPISSSAAVAATPREECREVEREGDGYSVYCKRGRREAMEDRFSAITNLHGDRKQAIFGVYDGHGGVKAAEFAAKNLDKNIVEEVVGKRDESEIAEAVKHGYLATDASFLKEEDVKGGSCCVTALVNEGNLVVSNAGDCRAVMSVGGVAKALSSDHRPSRDDERKRIETTGGYVDTFHGVWRIQGSLAVSRGIGDAQLKKWVIAEPETKISRIEHDHEFLILASDGLWDKVSNQEAVDIARPLCLGTEKPLLLAACKKLVDLSASRGSSDDISVMLIPLRQFI
Which binding does the source give for B1 here?
Its binding is “binds”.
